# This is one part of the list.
# B1: PpFlo1 (Pichia pastoris) (protein)
# chain: MGSSHHHHHHSSGLVPRGSHMQESGDGDISDSAYACDIDATRYDGFNATIYEFQPGDGRLTRDPVFMSTGYLNRTQLHSITGVTDPGFSIYTPGVPTTTLYGIPNVNWENLLLELKGYFRAEVSGDYGLSLRNIDDSAILFFGKETAFQCCNENSISNEASTDYSLFTIFRQEGDETTNLDSFTYTQYLEAGKYYPVRTFFVNIERHAVFNFTMTLPDGTELTDFHNYIYQFGALDEEQCQA
# Key:
# Assay in all cases: glycan array binding signal (z-score within array); higher = stronger binding
# Settings in all cases: glycan notation: IUPAC condensed, linker removed
# [1] = target: Neu5Ac(a2-3)Gal(b1-4)GlcNAc(b1-3)Gal(b1-4)GlcNAc(b1-3)Gal(b1-4)GlcNAc(b1-2)Man(a1-3)[Neu5Ac(a2-3)Gal(b1-4)GlcNAc(b1-3)Gal(b1-4)GlcNAc(b1-3)Gal(b1-4)GlcNAc(b1-2)Man(a1-6)]GalNAc
# Method in brief: (§1)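 The binding signal is a Z-score computed within each array. Data were drawn from 3228 arrays in the Consortium for Functional Glycomics database, restricted to those with a known protein sequence. Scores were averaged over arrays of the same protein sequence at different concentrations or buffers, and over linkers, and negative values can be taken as non-binding.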
# [2] = target: Neu5Ac(a2-3)Gal(b1-4)GlcNAc(b1-3)Gal(b1-4)GlcNAc(b1-3)GalNAc
# Method in brief: as §1
# [3] = target: Neu5Ac(a2-3)Gal(b1-4)GlcNAc(b1-3)Gal(b1-4)GlcNAc(b1-3)[Neu5Ac(a2-3)Gal(b1-4)GlcNAc(b1-3)Gal(b1-4)GlcNAc(b1-6)]GalNAc
# Method in brief: as §1
# [4] = target: Neu5Ac(a2-3)Gal(b1-4)GlcNAc(b1-3)Gal(b1-4)GlcNAc(b1-6)[Gal(b1-3)]GalNAc
# Method in brief: as §1
# [5] = target: Neu5Ac(a2-3)Gal(b1-4)GlcNAc(b1-3)Gal(b1-4)[Fuc(a1-3)]GlcNAc
# Method in brief: as §1
# [6] = target: Neu5Ac(a2-3)Gal(b1-4)GlcNAc(b1-3)GalNAc
# Method in brief: as §1
# [7] = target: Neu5Ac(a2-3)Gal(b1-4)GlcNAc(b1-3)[Neu5Ac(a2-3)Gal(b1-4)GlcNAc(b1-6)]GalNAc
# Method in brief: as §1
# [8] = target: Neu5Ac(a2-3)Gal(b1-4)GlcNAc(b1-6)GalNAc
# Method in brief: as §1
# [9] = target: Neu5Ac(a2-3)Gal(b1-4)GlcNAc(b1-6)[Gal(b1-3)]GalNAc
# Method in brief: as §1
# [10] = target: Neu5Ac(a2-3)Gal(b1-4)GlcNAc(b1-6)[Neu5Ac(a2-3)Gal(b1-3)]GalNAc
# Method in brief: as §1
# [11] = target: Neu5Ac(a2-3)Gal(b1-4)GlcNAc6S
# Method in brief: as §1
# [12] = target: Neu5Ac(a2-3)Gal(b1-4)[Fuc(a1-3)]GlcNAc
# Method in brief: as §1
# [13] = target: Neu5Ac(a2-3)Gal(b1-4)[Fuc(a1-3)]GlcNAc(b1-2)Man
# Method in brief: as §1
# [14] = target: Neu5Ac(a2-3)Gal(b1-4)[Fuc(a1-3)]GlcNAc(b1-3)Gal
# Method in brief: as §1
# [15] = target: Neu5Ac(a2-3)Gal(b1-4)[Fuc(a1-3)]GlcNAc(b1-3)Gal(b1-4)GlcNAc
# Method in brief: as §1
# [16] = target: Neu5Ac(a2-3)Gal(b1-4)[Fuc(a1-3)]GlcNAc(b1-3)Gal(b1-4)[Fuc(a1-3)]GlcNAc(b1-3)Gal(b1-4)[Fuc(a1-3)]GlcNAc
# Method in brief: as §1
# [17] = target: Neu5Ac(a2-3)Gal(b1-4)[Fuc(a1-3)]GlcNAc(b1-3)GalNAc
# Method in brief: as §1
# [18] = target: Neu5Ac(a2-3)Gal(b1-4)[Fuc(a1-3)]GlcNAc(b1-6)[Gal(b1-3)]GalNAc
# Method in brief: as §1
# [19] = target: Neu5Ac(a2-3)Gal(b1-4)[Fuc(a1-3)]GlcNAc(b1-6)[Neu5Ac(a2-3)Gal(b1-3)]GalNAc
# Method in brief: as §1
# [20] = target: Neu5Ac(a2-3)Gal(b1-4)[Fuc(a1-3)]GlcNAc6S
# Method in brief: as §1
# [21] = target: Neu5Ac(a2-3)Gal6S(b1-4)GlcNAc
# Method in brief: as §1
# [22] = target: Neu5Ac(a2-3)Gal6S(b1-4)[Fuc(a1-3)]GlcNAc
# Method in brief: as §1
# Neu5Ac(a2-3)GalNAc = target: Neu5Ac(a2-3)GalNAc
# Method in brief: as §1
# [23] = target: Neu5Ac(a2-3)GalNAc(b1-4)GlcNAc
# Method in brief: as §1
# [24] = target: Neu5Ac(a2-3)[GalNAc(b1-4)]Gal(b1-4)Glc
# Method in brief: as §1
# [25] = target: Neu5Ac(a2-3)[GalNAc(b1-4)]Gal(b1-4)GlcNAc
# Method in brief: as §1
# [26] = target: Neu5Ac(a2-3)[GalNAc(b1-4)]Gal(b1-4)GlcNAc(b1-3)GalNAc
# Method in brief: as §1
# [27] = target: Neu5Ac(a2-3)[Neu5Ac(a2-6)]GalNAc
# Method in brief: as §1
# Neu5Ac(a2-6)Gal = target: Neu5Ac(a2-6)Gal
# Method in brief: as §1
# [28] = target: Neu5Ac(a2-6)Gal(b1-3)GlcNAc(b1-3)[Gal(b1-4)GlcNAc(b1-6)]Gal(b1-4)Glc
# Method in brief: as §1
# Neu5Ac(a2-6)Gal(b1-4)Glc = target: Neu5Ac(a2-6)Gal(b1-4)Glc
# Method in brief: as §1
# [29] = target: Neu5Ac(a2-6)Gal(b1-4)GlcNAc
# Method in brief: as §1
# [30] = target: Neu5Ac(a2-6)Gal(b1-4)GlcNAc(b1-2)Man
# Method in brief: as §1
# [31] = target: Neu5Ac(a2-6)Gal(b1-4)GlcNAc(b1-2)Man(a1-3)Man(b1-4)GlcNAc(b1-4)GlcNAc
# Method in brief: as §1
# [32] = target: Neu5Ac(a2-6)Gal(b1-4)GlcNAc(b1-2)Man(a1-3)[Gal(b1-4)GlcNAc(b1-2)Man(a1-6)]Man(b1-4)GlcNAc(b1-4)GlcNAc
# Method in brief: as §1
# [33] = target: Neu5Ac(a2-6)Gal(b1-4)GlcNAc(b1-2)Man(a1-3)[GlcNAc(b1-2)Man(a1-6)]Man(b1-4)GlcNAc(b1-4)GlcNAc
# Method in brief: as §1
# [34] = target: Neu5Ac(a2-6)Gal(b1-4)GlcNAc(b1-2)Man(a1-3)[GlcNAc(b1-2)Man(b1-4)GlcNAc(b1-2)Man(a1-6)]Man(b1-4)GlcNAc(b1-4)GlcNAc
# Method in brief: as §1
binder,measurement,setting,value
B1,glycan array binding signal (z-score),[1],0.469
same,glycan array binding signal (z-score),[2],-0.661
same,glycan array binding signal (z-score),[3],0.078
same,glycan array binding signal (z-score),[4],-0.458
same,glycan array binding signal (z-score),[5],-0.38
same,glycan array binding signal (z-score),[6],-0.337
same,glycan array binding signal (z-score),[7],-0.341
same,glycan array binding signal (z-score),[8],-0.453
same,glycan array binding signal (z-score),[9],-0.212
same,glycan array binding signal (z-score),[10],-0.337
same,glycan array binding signal (z-score),[11],-0.025
same,glycan array binding signal (z-score),[12],-0.403
same,glycan array binding signal (z-score),[13],-0.284
same,glycan array binding signal (z-score),[14],0.047
same,glycan array binding signal (z-score),[15],0.142
same,glycan array binding signal (z-score),[16],-0.141
same,glycan array binding signal (z-score),[17],0.976
same,glycan array binding signal (z-score),[18],1.03
same,glycan array binding signal (z-score),[19],-0.265
same,glycan array binding signal (z-score),[20],0.267
same,glycan array binding signal (z-score),[21],-0.584
same,glycan array binding signal (z-score),[22],0.016
same,glycan array binding signal (z-score),Neu5Ac(a2-3)GalNAc,-0.32
same,glycan array binding signal (z-score),[23],-0.165
same,glycan array binding signal (z-score),[24],-0.314
same,glycan array binding signal (z-score),[25],-0.179
same,glycan array binding signal (z-score),[26],0.445
same,glycan array binding signal (z-score),[27],0.292
same,glycan array binding signal (z-score),Neu5Ac(a2-6)Gal,-0.093
same,glycan array binding signal (z-score),[28],-0.237
same,glycan array binding signal (z-score),Neu5Ac(a2-6)Gal(b1-4)Glc,0.204
same,glycan array binding signal (z-score),[29],-0.057
same,glycan array binding signal (z-score),[30],-0.749
same,glycan array binding signal (z-score),[31],-0.078
same,glycan array binding signal (z-score),[32],0.28
same,glycan array binding signal (z-score),[33],-0.446
same,glycan array binding signal (z-score),[34],1.45

# Reference: the supplement of paper PMC8728848
